# Data from PubChem BioAssay AID1963319 (National Center for Advancing Translational Sciences (NCATS), 2024).
# About 120 (9.2%) of roughly 1,300 compounds were called active. This list was built around the results that the source calls inconclusive (neither active nor inactive); the mix of calls is not that of the screen. The call rests on the fitted dose curve; in most records, active means well fitted activation curve with a large enough effect; inconclusive means small, poorly fitted or top-dose-only effect; inactive means flat fitted curve, though single readings scatter. Potencies beside an inconclusive call are fits to weak or partial responses and may not hold up.
# Biological target: Luciferin 4-monooxygenase (Photinus pyralis) (UniProt P08659)
# Assay: Firefly luciferase (FLuc-C-HiBiT) SDR gain of signal screen - plus ATP;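 further: signal reports ligand binding via conformational change of the enzyme rather than luciferase catalysis; nearly all actives have a fitted effect of over 55% in size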; on activation (gain of signal): % of control where 0% means no effect
# Settings: purified FLuc-C-HiBiT + ATP, HiBiT complementation luminescence; series mostly up to 32.7 µM; activation (gain of signal): at the top concentration
# Outline: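 FLuc-C-HiBiT (10 nM final) with 10 uM ATP was incubated with library compounds over 30 min at room temperature in the dark. Nano-Glo HiBiT reagent was then added, and after 5-10 min luminescence was imaged on a CCD camera.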
# Potency means the concentration at half of the fitted maximal effect; tags describe the fitted curve by direction and shape.
# UniProt P08659, sequence (P08659 whole entry, looked up): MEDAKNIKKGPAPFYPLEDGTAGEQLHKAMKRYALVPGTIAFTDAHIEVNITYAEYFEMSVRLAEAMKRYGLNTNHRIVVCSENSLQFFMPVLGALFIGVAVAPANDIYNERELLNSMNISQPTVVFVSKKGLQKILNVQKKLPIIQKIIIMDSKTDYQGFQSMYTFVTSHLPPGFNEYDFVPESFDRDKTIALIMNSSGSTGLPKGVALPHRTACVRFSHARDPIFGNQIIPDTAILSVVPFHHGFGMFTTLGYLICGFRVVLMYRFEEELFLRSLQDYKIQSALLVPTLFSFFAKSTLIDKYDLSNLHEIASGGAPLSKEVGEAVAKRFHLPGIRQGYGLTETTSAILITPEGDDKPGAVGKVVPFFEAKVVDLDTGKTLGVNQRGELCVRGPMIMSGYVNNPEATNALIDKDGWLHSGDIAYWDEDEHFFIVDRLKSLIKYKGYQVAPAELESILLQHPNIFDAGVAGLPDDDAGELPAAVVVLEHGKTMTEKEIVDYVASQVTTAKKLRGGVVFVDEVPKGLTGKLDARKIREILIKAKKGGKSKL
SMILES,Potency,activation (gain of signal)
Cc1ccc(-n2ncc3c(NC4CCCCC4)ncnc32)cc1C,"inconclusive: 1.57 µM [activator, full curve, poor fit]",
O=C(NCCc1cccs1)c1cccc2c1CCN2C(=O)Nc1ccc(F)cc1,active: 1.4 µM,
CC(=O)N1CCNc2cc(Nc3ccc(F)cc3)ncc2C1,"inconclusive: 6.4 µM [activator, partial curve, poor fit]",
O=C(Nc1ccccc1)C1CCN(C(=O)c2ncn3c2COC(c2ccccc2)C3)CC1 (centres undefined),active: 1.57 µM,
CSCC(=O)N[C@H]1CCN2C(=O)c3cc(/C=C/c4ccccc4)ccc3NC(=O)[C@H]12,,inactive: 10.2% [at 49.3 µM]
COc1ccc(NC(=O)Nc2cccc(-c3ccc(N4CCOCC4)nn3)c2)cc1,"inconclusive: 4.42 µM [activator, partial curve]",
Cc1ccc(-c2nnc(SCc3ccccc3C#N)o2)cc1,"inconclusive: 11.1 µM [activator, partial curve]",
CC(C)(Oc1nn(CC2CC2)c2ccc(CN3CCCC3)cc12)C(=O)NC1CCOCC1,,inactive: 10.4% [at 49.3 µM]
Cc1ccc2nc(-c3ccc(NC(=O)COc4c(C)ccc(C)c4C)cc3)sc2c1,,inactive: 15.3%
Oc1c(Br)cc(Br)cc1-c1nc2ccccc2s1,,inactive: 7.95%
CCCNC(=O)Cn1c(C)ccc(NC(=O)Nc2ccc(OC)cc2)c1=O,"inconclusive: 12.4 µM [activator, partial curve]",
O=C(NCCc1ccccc1F)c1nc2sccn2c1Br,"inconclusive: 9.89 µM [activator, partial curve]",
CC(C)c1cnc(N2CCC(COc3ccc4c(cnn4CCC(=O)O)c3)CC2)nc1,,inactive: 8.96% [at 49.3 µM]
Cn1nc(-c2ccc3c(c2)OCCO3)nc1N1CCCCC1,"inconclusive: 15.7 µM [activator, partial curve, poor fit]",
O=C(Nc1ccccc1)c1nc2c(o1)CCN(Cc1ccc(O)cc1)CC2,"inconclusive: 10.1 µM [activator, partial curve, poor fit]",
COCCN1CCOc2nc(-c3cccc(N(C)C)c3)ncc2C1=O,"inconclusive: 20.2 µM [activator, partial curve, poor fit]",
CC1CCCN(c2ncnc3c2cnn3-c2ccc(Cl)cc2)C1 (centres undefined),active: 0.248 µM,
COc1cccc(-c2cn3ncsc3n2)c1,,inactive: 15.8%
COc1ccc2cc(C3CN(C(=O)c4cccc(CO)c4)CCO3)ccc2c1 (centres undefined),"inconclusive: 3.94 µM [activator, partial curve]",
COc1ccc(-c2ncc3c(n2)OCCN(Cc2ccccc2)C3=O)cc1,,inactive: 15% [at 49.3 µM]
Cc1nc2ccc(-c3nc(C4CCOC4)no3)cc2s1 (centres undefined),"inconclusive: 15.7 µM [activator, partial curve]",
Cc1ccc(C)c(N2CCN(C(=O)c3ccc(NC(=O)c4nsc5ccccc45)cc3)CC2)c1,"inconclusive: 12.4 µM [activator, partial curve]",

SMILES,Potency,activation (gain of signal)
CC(=O)N1CCCN(c2ccc(-c3nc(-c4ccccc4F)no3)cn2)CC1,"inconclusive: 8.81 µM [activator, partial curve, poor fit]",
Nc1ncnc2c1ncn2[C@H]1O[C@H](CO)[C@@H](O)[C@@H]1O,,inactive: 10.2%
O=C(Nc1ccccc1)c1nc2c(o1)CCN(Cc1ccccc1)CC2,"inconclusive: 5.7 µM [activator, full curve, poor fit]",
Clc1cccc(-n2ncc3c(N4CCCCC4)ncnc32)c1,"inconclusive: 3.94 µM [activator, partial curve]",
Cc1ccc(C(=O)Nc2cccc(C(=O)O)c2)cc1S(=O)(=O)N1CCCC1,active: 0.0785 µM,
O=C(NCCc1ccccc1)C1CCN(C(=O)c2ncn3c2COC(c2ccccc2)C3)CC1 (centres undefined),"inconclusive: 1.76 µM [activator, full curve]",
COc1ccccc1C(=O)Nc1onc2c1CCCC2,"inconclusive: 12.4 µM [activator, partial curve]",
O=C(NCc1ccco1)C1CCN(C(=O)c2ncn3c2COC(c2ccccc2)C3)CC1 (centres undefined),active: 2.48 µM,
C[S+](=O)([O-])CCn1ncc2cc(OCc3cccc(-c4cccnc4)c3)ccc21,"inconclusive: 11.4 µM [activator, partial curve, poor fit]",
Cc1ccc(NC(=O)C2CCN(C(=O)c3ncn4c3COC(c3ccccc3)C4)CC2)cc1C (centres undefined),"inconclusive: 9.89 µM [activator, partial curve]",
Cc1ccc(/C=C/c2nc3ccccc3n2S(=O)(=O)c2cccc(Cl)c2)cc1,active: 0.7 µM,
O=C(O)c1ccc(-c2noc(-c3cccc(Cl)c3)n2)cc1,"inconclusive: 6.24 µM [activator, partial curve]",
CCC(=O)N1CCN(c2nc3c(s2)CC(C(=O)O)CC3)CC1 (centres undefined),"inconclusive: 4.95 µM [activator, partial curve]",
COc1ccc(-c2ccc(CN3CC(C)(NC(C)=O)C3)s2)cn1,,inactive: 11.9% [at 49.3 µM]
C[C@@H]1C(=O)O[C@H]2[C@H]1CC[C@@]1(C)Cc3sc(Nc4cccnc4)nc3[C@@H](C)[C@H]21,"inconclusive: 0.718 µM [activator, full curve]",
CCOC(=O)C1(C)C=C(Nc2cccc(C(=O)O)c2)C(=O)N1c1ccccc1 (centres undefined),"inconclusive: 12.4 µM [activator, partial curve, poor fit]",
c1ccc(-c2noc(-c3ccc(OC4CNC4)cc3)n2)cc1,"inconclusive: 9.89 µM [activator, partial curve]",
Nc1ccc(C(=O)N2CCCn3nc(C(=O)Nc4ccccc4)cc3C2)cn1,"inconclusive: 15.7 µM [activator, partial curve, poor fit]",
Cc1ccc(-n2ncc3c(N4CCCCCC4)ncnc32)cc1Cl,"inconclusive: 1.57 µM [activator, full curve]",
Cc1ccc(F)cc1-c1ccc(COc2ccc3c(cnn3CCC(=O)O)c2)cc1,,inactive: 11.8% [at 49.3 µM]
COc1ccc2nc(-c3cccc(C(C)=O)c3)sc2c1,"inconclusive: 12.4 µM [activator, partial curve]",
CCCNc1cc(N2CCC(CCC(=O)Nc3ccc4c(c3)OCCO4)CC2)ncn1,"inconclusive: 12.4 µM [activator, partial curve, poor fit]",
